# Data reported in paper PMC4336329 (PLoS ONE, 2015).
# About 14,000 (4.5%) of roughly 310,000 compounds showed an effect of 50% or more. The effect is printed as a negative number. This is one part of the list.
# Target: human ether-à-go-go-related gene (hERG) potassium channel (human, UniProt Q12809)
# Assay: primary screen, population patch clamp on CHO cells stably expressing hERG
# Protocol: Briefly, Chinese hamster ovary (CHO) cells stably expressing the hERG channel were dislodged from tissue culture flasks and dispensed into PPC plates. […] During the recording, background leak currents were estimated by a 100 ms step to -80 mV from an initial holding potential of -70 mV and subtracted from the subsequent current measurement. The campaign was conducted in two phases using slight differences in recording protocol. In the first phase, the initial voltage pulse used a 100 ms step to -30 mV from a holding potential of -70 mV, a 2 s conditioning step to +25 mV, and a 2 s test step to -30 mV. During the second phase of the screen, the potential during the conditioning step was raised to +45 mV. In both phases of the campaign, a secondary voltage pulse was applied using the same parameters as the second phase initial pulse. The initial and secondary pulses were applied in the absence of compound, and upon application of 1 μM and 10 μM test concentrations. […]
# 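Note: peak tail current of the secondary pulse compared with the same well before compound.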
# human ether-à-go-go-related gene (hERG) potassium channel, sequence (Q12809 whole entry, looked up): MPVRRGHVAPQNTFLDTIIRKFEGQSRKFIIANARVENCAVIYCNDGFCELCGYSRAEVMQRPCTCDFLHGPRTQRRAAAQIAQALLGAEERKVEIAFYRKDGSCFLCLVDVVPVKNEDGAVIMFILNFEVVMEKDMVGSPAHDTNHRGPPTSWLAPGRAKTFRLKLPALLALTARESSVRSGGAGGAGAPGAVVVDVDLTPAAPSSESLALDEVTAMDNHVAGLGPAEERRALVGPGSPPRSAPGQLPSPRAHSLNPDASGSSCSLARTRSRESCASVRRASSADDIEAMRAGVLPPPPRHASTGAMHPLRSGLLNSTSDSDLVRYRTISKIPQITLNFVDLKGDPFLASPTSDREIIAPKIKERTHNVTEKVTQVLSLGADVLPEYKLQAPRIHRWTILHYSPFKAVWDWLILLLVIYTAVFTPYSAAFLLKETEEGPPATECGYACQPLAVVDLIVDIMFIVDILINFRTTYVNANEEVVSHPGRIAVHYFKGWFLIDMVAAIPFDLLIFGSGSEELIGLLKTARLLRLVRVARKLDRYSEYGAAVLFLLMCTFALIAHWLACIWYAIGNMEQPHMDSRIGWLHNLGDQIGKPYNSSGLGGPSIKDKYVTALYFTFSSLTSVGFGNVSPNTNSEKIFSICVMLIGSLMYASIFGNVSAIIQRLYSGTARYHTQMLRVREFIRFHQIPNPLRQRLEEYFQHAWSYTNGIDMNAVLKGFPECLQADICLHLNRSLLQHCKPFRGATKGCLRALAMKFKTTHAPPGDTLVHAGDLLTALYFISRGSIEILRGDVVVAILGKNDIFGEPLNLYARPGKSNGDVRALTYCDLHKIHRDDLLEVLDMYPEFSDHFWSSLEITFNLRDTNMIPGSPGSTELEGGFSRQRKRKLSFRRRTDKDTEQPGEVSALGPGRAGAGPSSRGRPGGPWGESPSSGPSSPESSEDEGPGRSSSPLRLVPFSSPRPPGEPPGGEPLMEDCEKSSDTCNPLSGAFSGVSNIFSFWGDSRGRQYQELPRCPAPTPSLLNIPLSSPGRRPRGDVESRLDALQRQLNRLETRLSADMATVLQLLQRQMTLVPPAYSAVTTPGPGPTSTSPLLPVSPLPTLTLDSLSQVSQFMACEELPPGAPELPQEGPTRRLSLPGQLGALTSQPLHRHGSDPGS
row,SMILES,"hERG current change (%, negative = inhibition) at 10uM [%]"
1,Cc1cc(-c2cccnc2)c(C#N)c(SCc2cccc(F)c2)n1,3.46
2,Cc1nc2ccccn2c1-c1csc(Nc2ccc(C(=O)O)cc2)n1,17.1
3,CCn1c(N2CCN(CC(=O)Nc3cccc(C)c3C)CC2)nc2ccccc21,-63.6
4,Cc1[nH]c(=O)nc2c1CCC2,24.3
5,Cn1c(CN2CCCC2)c(C#N)c2ccccc21,-12.1
6,Cl.Clc1ccccc1CSc1nnc([C@@H]2CCCN2)o1,15.1
7,Cn1c(Cn2c(=O)sc3ccccc32)nnc1SCC(=O)Nc1ccccc1F,2.9
8,COc1ccc(N2CCN(C(=O)C3(C)CC3(Cl)Cl)CC2)cc1 (centres unmarked),2.66
9,COc1ccc(CNC(=O)[C@H](C)NC(=O)C2CCN(S(=O)(=O)c3ccccc3)CC2)cc1,10.4
10,COc1ccc(S(=O)(=O)NCC2CCCN(C(=O)C=C(C)C)C2)cc1 (centres unmarked),22.2
11,CCOC(=O)C(=O)CC(=O)c1ccc2c(c1)OCCO2,-0.0539
12,CC(/C=C/c1ccc(Cl)o1)=C\C(=O)O,5.67
13,Cc1cc(C(=O)COC(=O)c2ccc[nH]c2=O)c(C)n1-c1ccc(F)cc1,4.8
14,CC1CN(CCOc2ccc(Cl)cc2Cl)CC(C)O1.O=C(O)C(=O)O (centres unmarked),-24.6
15,COc1ccc(CCN2C(=O)CSC2c2ccc(F)cc2)cc1 (centres unmarked),7.65
16,CC(C)(C)c1csc(Sc2ncccc2[N+](=O)[O-])n1,9.28
17,COc1ccc(C(C#N)CCC2OCCO2)cc1OC (centres unmarked),-11.6
18,Cc1ccc(S(=O)(=O)Nc2nc(CN3CCOCC3)nc3sc(C)c(C)c23)cc1,-43
19,CCOC(=O)C(CC)n1cnc2c(nnn2-c2ccc(F)cc2)c1=O (centres unmarked),-25.6
20,O=C(CSc1nnnn1-c1cccc2ccccc12)NC(C(=O)O)(c1ccccc1)c1ccccc1,19.7
21,O=C(CC1SC(=O)N(c2ccccc2)C1=O)Nc1ccc(Cl)cc1 (centres unmarked),13.9
22,COc1ccc(S(=O)(=O)NNC(=O)Nc2ccc(C)cc2C)c(OC)c1,-1.37
23,N#Cc1ccccc1COc1cccc2c1CCCC2O (centres unmarked),21

row,SMILES,"hERG current change (%, negative = inhibition) at 10uM [%]"
1,CCC12CN(C(=O)c3ccc(OC)cc3)CC(CC)(CN(C(=O)c3ccc(OC)cc3)C1)C2=O,3.45
2,Cc1cc(C(=O)CCC(=O)NC(C)c2ccc(S(N)(=O)=O)cc2)c(C)s1 (centres unmarked),-5.29
3,Cc1n[nH]c(=O)c2c(NC(=O)CSc3nnnn3-c3ccccc3)oc(C)c12,-21
4,COc1ccccc1CN(C(=O)CCl)C(C(=O)NC1CCCCC1)c1ccncc1 (centres unmarked),-1.23
5,c1ccc(-c2nc3ccccn3c2NC2CCCC2)nc1,-26.9
6,CN(C)CCSc1nnc(-c2ccccc2)o1.Cl,-8.57
7,O=C(/C=C/c1ccc(Cl)cc1Cl)NCc1ccncc1,-2.87
8,Cn1c(SCC(=O)Nc2sccc2C(N)=O)nnc1-c1ccncc1,-4.85
9,CC(C)CC(=O)Nc1ccc2c(c1)nc(CCN1CCOCC1)n2C,27.4
10,CC(C)C(=O)Nc1ccccc1C(=O)N/N=C/c1ccc([N+](=O)[O-])cc1,5.6
11,O=C(O)CCC(=O)NN1C(=O)c2ccccc2NC1c1ccc(F)cc1 (centres unmarked),-2.7
12,CC(=O)c1ccc(S(=O)(=O)N2CCCCC2C(=O)O)cc1 (centres unmarked),14.8
13,CC(C)C(=O)N1CCN(c2ccccc2NC(=O)c2cc([N+](=O)[O-])ccc2N2CCOCC2)CC1,-67.2
14,Cc1ccc(Cn2ncc3c(N4CCN(C)CC4)ncnc32)cc1,-7.67
15,Cc1cc(NC(=O)CSc2nnc(-c3ccncc3)n2-c2ccc(F)cc2)no1,-3.61
16,O=C(Nc1ccccc1C(=O)N1CCOCC1)c1ccc(Cl)cc1,-15.1
17,Cc1cc(NC(=O)CN2CCC(C)CC2)no1.O=C(O)C(=O)O,20.6
18,O=C1NC(=O)c2cc3ccccc3cc21,-18.2
19,O=C(Nc1cccc2c1CCCC2)c1ccccc1Br,16
20,COc1ccc(CCNC(=O)CSc2ncc(C(=O)Nc3ccccc3)c(=O)n2C)cc1,-18.5
21,CCNC(=O)NC(=O)COC(=O)CCCSc1nc2ccccc2[nH]1,3.65
22,CCOC(=O)c1cc2c3ccccc3n(CC)c2nc1N,7.25
23,CCn1cc(C(=O)N[C@H](C(=O)O)C(C)C)c(=O)c2cc3c(cc21)OCO3,5.6

row,SMILES,"hERG current change (%, negative = inhibition) at 10uM [%]"
1,COc1cccc(-c2csc3nnc(SCC(=O)c4ccc(NC(C)=O)cc4)n23)c1,4.79
2,O=C(CN1CCN(c2ccccn2)CC1)Nc1cccc(S(=O)(=O)N2CCCC2)c1,12.4
3,CCN(CC)C(=O)Cn1cnc2ccccc2c1=O,-2.77
4,COc1ccc2[nH]cc(CCNC(=S)NCCc3ccccc3)c2c1,2.94
5,Cc1cc(-c2ccc(C(C)C)c(S(=O)(=O)N3CCN(c4ccccn4)CC3)c2)on1,2.81
6,CCN(CC(=O)NC(C)C)C(=O)C(CCSC)NC(=O)c1ccccc1OC (centres unmarked),22.1
7,O=c1c2ccccc2nc(SCc2nnc(-c3ccccc3)o2)n1-c1ccc(F)cc1F,19.4
8,COc1ccccc1NC(=O)C1CCCN(C(=O)NCc2ccccc2)C1 (centres unmarked),0.779
9,Cc1ccc(NCC(=O)N/N=C/c2cccn2C)cc1,6.12
10,O=S(=O)(Nc1ccc(Cc2ccncc2)cc1)c1ccc(Cl)s1,4.65
11,Cc1cc(C(=O)OCC(=O)Nc2nnc(C(C)C)s2)c2ccccc2n1,0.403
12,COc1ccccc1NC(=O)c1ccc2c(c1)nnn2C,21.2
13,CCOc1ccc(C(=O)CCC(=O)Nc2cccc(S(=O)(=O)N3CCCCC3)c2)cc1,-7.42
14,CCONC(=O)Nc1ccccc1[N+](=O)[O-],4.9
15,Cc1ccc(S(=O)(=O)n2ccc3cccnc32)cc1,4.2
16,Cn1c(SCC(=O)OC2CCCCC2)nnc1-c1ccc2c(c1)OCO2,-19.7
17,COC(=O)c1ccc(CSc2nc3ccc(S(=O)(=O)N4CCOCC4)cc3[nH]2)cc1,-10.8
18,O=C(N/N=C/c1ccc(Br)s1)c1cccc([N+](=O)[O-])c1,12.2
19,COc1ccc(-c2ccc(SCC(=O)NC3CCCCC3)nn2)cc1OC,16.4
20,CCOC(=O)N1CCN(C(=O)c2ccc(N3C(=O)CCC3=O)cc2)CC1,-8.83
21,COc1ccc(OC)c(C2=NOC(C(=O)NCCN3CCOCC3)C2)c1 (centres unmarked),-0.364
22,COc1ccc(CCNC(=O)C2CCN(S(=O)(=O)c3ccc(NC(C)=O)cc3)CC2)cc1OC,9.83
23,CNC(=O)c1ccc(NC(=O)CN2c3cccc4cccc(c34)S2(=O)=O)cc1,4.69

row,SMILES,"hERG current change (%, negative = inhibition) at 10uM [%]"
1,CC(C)CN(CCCNC(=O)CN1C(=O)COc2ccc(S(=O)(=O)N3CCCC3)cc21)CC(C)C,-5.33
2,Cc1ncc(C[n+]2csc(CCOC(=O)CC34CC5CC(CC(C5)C3)C4)c2C)c(N)n1.Cl.[Cl-],-4.79
3,O=C(O)CSc1nnc(-c2ccc(Cl)cc2Cl)n1-c1ccccc1,18.7
4,CC(C)N1CC(C(=O)O)CC1=O (centres unmarked),19
5,Cc1ccc(-c2csc(NC(=O)COC(=O)c3cccc(S(=O)(=O)N4CCOCC4)c3)n2)cc1,11.4
6,COc1ccc(CNc2ccc3c(c2)CCC3)cc1Br,35.4
7,Cc1cc(N2C(=O)C(O)=C(C(=O)c3cccs3)C2c2cccc(O)c2)no1 (centres unmarked),14.6
8,COc1ccccc1C(=O)NNc1ncc(C)s1.Cl,-0.745
9,CC(=O)Nc1cc(C(F)(F)F)ccc1Oc1cccc(Br)c1,-48.2
10,CCCc1nnc(SCC(=O)N2CCOCC2)n1CC1CCCO1 (centres unmarked),23.6
11,Clc1ccc2c(NNc3ccccc3Cl)ccnc2c1,7.9
12,CN(C(=O)c1ccc(NC(=O)Cc2cccc(NC(=O)C3CCCN(C(=O)C4CCC4)C3)c2)cc1)C1CCCC1 (centres unmarked),-8.89
13,Cc1c(NC(=S)NC(=O)c2sc3ccccc3c2Cl)cccc1C(=O)O,-7.69
14,COc1cccc(CNC(=O)c2ccc(Cl)c(S(=O)(=O)N3CCOCC3)c2)c1,-19.5
15,C=CCNC(=S)N1CCN(c2ccccc2Cl)CC1,-6.87
16,Clc1ccc(-c2nnc(C34CC5CC(CC(C5)C3)C4)o2)cn1,-7.73
17,Cc1ccc(NS(=O)(=O)c2ccc(OCC(=O)N3CCN(C)CC3)cc2)cc1,4.6
18,CC(CCc1ccccc1)NC(=O)/C=C/c1ccc(Cl)cc1 (centres unmarked),-17.8
19,CC(C)(C)CN1CCC(n2nccc2NC(=O)c2ccccc2Cl)CC1,-20.3
20,CCOC(=O)C1(CC2CC2)CCN(Cc2ccc(OC)cc2F)CC1,-73.5
